{"source": "the RNAGym collection of RNA variant scans (doi:10.7554/elife.90254)", "parents": {"B1": {"name": "LINE1-mini (parent)", "chain": "GGCAGAGCUCAACACAGCGUGGCAAAGUGGCUGUGGCUAGACUGCC"}}, "note": "The source gives no read counts; variants with many changes may rest on few reads.", "data": [{"variants_of": "B1", "assay": "self-cleavage, relative activity (ratio to wild type); higher = more cleavage; in vitro, sequencing; the parent is a self-cleaving ribozyme", "values": [{"variant": "A16C G17U G36A", "self-cleavage": 0.09}, {"variant": "G17A C18U C23U U32G", "self-cleavage": 0.04}, {"variant": "A16U C23G U34A C45U", "self-cleavage": 0.06}, {"variant": "A16C C18A A24G G40U", "self-cleavage": 0.01}, {"variant": "A16U G35U G40A C45G", "self-cleavage": 0.04}, {"variant": "A16C G17A G40C", "self-cleavage": 0.01}, {"variant": "A16U A25C G30U C31A", "self-cleavage": 0.01}, {"variant": "G17A U38C C46A", "self-cleavage": 0.04}, {"variant": "G17C A24U G36A", "self-cleavage": 0.06}, {"variant": "G17A G29U G36U", "self-cleavage": 0.03}, {"variant": "G17A U28A G40U U43C", "self-cleavage": 0.09}, {"variant": "G17A A24U C42U", "self-cleavage": 0.04}, {"variant": "G17C A24U U34A G44C", "self-cleavage": 0.02}, {"variant": "C15U G29C C42U", "self-cleavage": 0.56}, {"variant": "A16G C23A G35C", "self-cleavage": 0.04}, {"variant": "A16U G36A C37G", "self-cleavage": 0.06}, {"variant": "G17A G33A C37U C46U", "self-cleavage": 0.01}, {"variant": "A16C G30C C45U C46A", "self-cleavage": 0.05}, {"variant": "C15U U28G C42A C45A", "self-cleavage": 0.05}, {"variant": "A16C U20C C42A", "self-cleavage": 0.06}, {"variant": "A16C U20C G35U", "self-cleavage": 0.03}, {"variant": "A16U U20A G33C", "self-cleavage": 0.02}, {"variant": "G17A G19A G36C C37A", "self-cleavage": 0.04}, {"variant": "G17A U32C G33U", "self-cleavage": 0.02}, {"variant": "A16G C18U U28G G30U", "self-cleavage": 0.01}, {"variant": "G17A G22C C42U", "self-cleavage": 0.17}, {"variant": "C15U G21A C42A", "self-cleavage": 0.07}, {"variant": "A16U G30A C31U G35A", "self-cleavage": 0}, {"variant": "C15U G17C A26U", "self-cleavage": 0.11}, {"variant": "G17A G27U G29U", "self-cleavage": 0.6}, {"variant": "C15U G22U A41G C45U", "self-cleavage": 0.18}, {"variant": "A16U C18U G36C G40C C42A C46U", "self-cleavage": 0.02}, {"variant": "A16C G33U U38C", "self-cleavage": 0.03}, {"variant": "G17C A26G C31A U32G", "self-cleavage": 0.03}, {"variant": "G17A G22A G35A", "self-cleavage": 0.03}, {"variant": "C15U G33A G36U", "self-cleavage": 0.09}, {"variant": "C15U G33A G36C", "self-cleavage": 0.23}, {"variant": "A16G U20G G40C", "self-cleavage": 0.06}, {"variant": "A16U G33C C37U A39C G44A", "self-cleavage": 0.02}, {"variant": "A16U G17U C18U G30U U34A G35A", "self-cleavage": 0.02}, {"variant": "A16C A26U U38G", "self-cleavage": 0}, {"variant": "A16G A24U A26U", "self-cleavage": 0.46}, {"variant": "C15U U32A U38A", "self-cleavage": 0.11}, {"variant": "C15U G21A C37U U43C C45G", "self-cleavage": 0.11}, {"variant": "A16G G29C C46U", "self-cleavage": 0.62}, {"variant": "A16U G21U U38C", "self-cleavage": 0.12}, {"variant": "G17C C18A C45A", "self-cleavage": 0.01}, {"variant": "A16C C18U C37G", "self-cleavage": 0.03}, {"variant": "A16G A39G C45A C46G", "self-cleavage": 0.01}, {"variant": "A16G G33A U34G", "self-cleavage": 0.01}, {"variant": "G17C C18G U32C G36A", "self-cleavage": 0.04}, {"variant": "C15U G21C G22U G27U", "self-cleavage": 0.79}, {"variant": "C15U G19C C23G", "self-cleavage": 0.65}, {"variant": "A16G C18G G27A C45U", "self-cleavage": 0.06}, {"variant": "A16U C42G G44C", "self-cleavage": 0.01}, {"variant": "C15U U20A G29U G35A G40U", "self-cleavage": 0.05}, {"variant": "A16G G33U A39C", "self-cleavage": 0.01}, {"variant": "G17A C18U G29A U38G A39U", "self-cleavage": 0.04}, {"variant": "A16C G17C C42G C45A", "self-cleavage": 0.07}, {"variant": "A16U G17A C46G", "self-cleavage": 0.02}, {"variant": "G17A G19U A26C G27C C45U", "self-cleavage": 0.06}, {"variant": "A16G G29U G44C", "self-cleavage": 0.11}, {"variant": "A16C G19C A25C", "self-cleavage": 0.89}, {"variant": "A16U U20G G21C C23U", "self-cleavage": 1.1}, {"variant": "C15U G29U C46U", "self-cleavage": 0.83}, {"variant": "A16C G17U G35U", "self-cleavage": 0.05}, {"variant": "A16U G21A A25G C42G", "self-cleavage": 0.01}, {"variant": "A16U C37U G40C C45A", "self-cleavage": 0.03}, {"variant": "A16C G33C C46A", "self-cleavage": 0.02}, {"variant": "A16C C37G G40C", "self-cleavage": 0.03}, {"variant": "A16U U20C C37G", "self-cleavage": 0.04}, {"variant": "A16U G22U A39C", "self-cleavage": 0}, {"variant": "A16G G27U C37U A39C C46A", "self-cleavage": 0.01}, {"variant": "A16U G22U G27A U34A U43A", "self-cleavage": 0.25}, {"variant": "G17A G19U G35U A41C", "self-cleavage": 0}, {"variant": "C15U U38C A39G", "self-cleavage": 0.14}, {"variant": "C15U G29C A39G C46A", "self-cleavage": 0.09}, {"variant": "C15U U20G G29C", "self-cleavage": 2.55}, {"variant": "A16C C23U G29C G44U", "self-cleavage": 0.23}, {"variant": "A16G A24C G30A U32G A39U", "self-cleavage": 0.05}, {"variant": "G17A G35C C37G U38A", "self-cleavage": 0.07}, {"variant": "A16C U20G A41G", "self-cleavage": 0.05}, {"variant": "C15U G27A A41G", "self-cleavage": 0.1}, {"variant": "G17A A41C C45A", "self-cleavage": 0.01}, {"variant": "A16G A25U C37A", "self-cleavage": 0.05}, {"variant": "A16C G36A G40U", "self-cleavage": 0.15}, {"variant": "C15U G36U A39U G40U", "self-cleavage": 0.98}, {"variant": "A16G U20A G27C C31G", "self-cleavage": 0.01}, {"variant": "A16U G21C G30A", "self-cleavage": 0.11}, {"variant": "A16U C18G A26G", "self-cleavage": 0.01}, {"variant": "C15U U38C G40A", "self-cleavage": 0.21}, {"variant": "A16U C42U C46A", "self-cleavage": 0.02}, {"variant": "A16C A25U U38A", "self-cleavage": 0.05}, {"variant": "A16U G29C G36A", "self-cleavage": 0.01}, {"variant": "A16C C23U C37U", "self-cleavage": 0.01}, {"variant": "A16G U32G G36C C42U", "self-cleavage": 0}, {"variant": "A16G C18G G27U G40C", "self-cleavage": 0}, {"variant": "G17C A25G G29A A39G", "self-cleavage": 0.04}, {"variant": "C15U G21C C31A", "self-cleavage": 0.03}, {"variant": "C15U G22A G29A C37U", "self-cleavage": 0.23}, {"variant": "A16G G35C C45A C46A", "self-cleavage": 0.04}, {"variant": "G17A G22U G27U", "self-cleavage": 0.56}, {"variant": "A16U A25G G44U", "self-cleavage": 0.13}, {"variant": "G17A A24U G35U C46U", "self-cleavage": 0.02}, {"variant": "G17C C18A G36C", "self-cleavage": 0.06}, {"variant": "A16C G21C G27C C45U", "self-cleavage": 0.04}, {"variant": "A16G G22U A25C C37A", "self-cleavage": 0.11}, {"variant": "A16G C23U A25U G36C C37A U43G", "self-cleavage": 0.03}, {"variant": "G17A A41U C46A", "self-cleavage": 0.04}, {"variant": "C15U G30C C37U", "self-cleavage": 0.03}, {"variant": "A16U G17C C23G U38A", "self-cleavage": 0.03}, {"variant": "A16U C18A A25U G36A", "self-cleavage": 0.03}, {"variant": "C15U G29A A39C", "self-cleavage": 0.08}, {"variant": "A16G G17C C37A", "self-cleavage": 0.02}, {"variant": "A16U A24C G27A A39G G40A", "self-cleavage": 0.1}, {"variant": "A16G G36A C42A C46U", "self-cleavage": 0.24}, {"variant": "A16C G21C G22A G27U", "self-cleavage": 0.07}, {"variant": "A16G C18G G22C G27U", "self-cleavage": 0.35}, {"variant": "G17A A26C C31U G33U", "self-cleavage": 0.01}, {"variant": "A16G G30C U34C", "self-cleavage": 0.1}, {"variant": "C15U U28C C37G G44U", "self-cleavage": 0.03}, {"variant": "A16C G17U G30C U34A G36A G40C U43C", "self-cleavage": 0.03}, {"variant": "A16U C18G G21U C37A", "self-cleavage": 0.01}, {"variant": "C15U G17C G40U", "self-cleavage": 0}, {"variant": "A16C A25U A41G", "self-cleavage": 0.02}, {"variant": "G17A G35U G36U G40C", "self-cleavage": 0.07}, {"variant": "G17A C23G A41G", "self-cleavage": 0.02}, {"variant": "G17A C18U U38C", "self-cleavage": 0.08}, {"variant": "C15U G29C G35U C46G", "self-cleavage": 0.07}, {"variant": "G17A C23G C37A U38C G44C", "self-cleavage": 0.01}, {"variant": "G17A U38C G44A", "self-cleavage": 0.03}, {"variant": "A16G C18G U38A", "self-cleavage": 0.02}, {"variant": "G17A C23G G35A", "self-cleavage": 0}, {"variant": "G17A C18A C23A", "self-cleavage": 0.2}, {"variant": "A16C G29A U38C A41G", "self-cleavage": 0.01}, {"variant": "C15U G22A A25U C42A", "self-cleavage": 0.16}, {"variant": "A16C U28G G33U C45U", "self-cleavage": 0}, {"variant": "A16G C23G U38G G40A C46A", "self-cleavage": 0}, {"variant": "A16C G27A U34G", "self-cleavage": 0.03}, {"variant": "G17C A24U G35C", "self-cleavage": 0.11}, {"variant": "A16G C18A G19A G22A C45A", "self-cleavage": 0.05}, {"variant": "A16U G30A C31G", "self-cleavage": 0.02}, {"variant": "C15U G33C C46U", "self-cleavage": 0.06}, {"variant": "G17A A26C G29U", "self-cleavage": 0.03}, {"variant": "C15U G30U C45G", "self-cleavage": 0.05}, {"variant": "A16G G17C A25G G27U", "self-cleavage": 0}, {"variant": "G17A G30A G40U A41U", "self-cleavage": 0.11}, {"variant": "A16U C23G A26G G30C G35C G44C", "self-cleavage": 0.03}, {"variant": "A16G G21U C45A", "self-cleavage": 0.05}, {"variant": "A16C G30A C45G", "self-cleavage": 0.03}, {"variant": "A16U G35U C42U", "self-cleavage": 0.22}, {"variant": "A16C U34C A39U", "self-cleavage": 0.01}, {"variant": "A16C C23A G29C U34G", "self-cleavage": 0.03}, {"variant": "A16G C18G A26U", "self-cleavage": 0.11}, {"variant": "G17C A25U C45U", "self-cleavage": 0.17}, {"variant": "A16C G21A G35U U38A C42G G44U", "self-cleavage": 0.02}, {"variant": "C15U G40A C45G", "self-cleavage": 0.07}, {"variant": "G17A G21C C31U", "self-cleavage": 0.41}, {"variant": "G17A U28G G29A", "self-cleavage": 0.06}, {"variant": "A16C G22A C37U", "self-cleavage": 0.1}, {"variant": "G17A G19A C23U U28C G44U", "self-cleavage": 0.02}, {"variant": "A16G C31G U43A", "self-cleavage": 0.01}, {"variant": "A16C U20A C23A C37A", "self-cleavage": 0.02}, {"variant": "C15U G33C G35U", "self-cleavage": 0.02}, {"variant": "C15U G19C G40U", "self-cleavage": 0.12}, {"variant": "G17A U38A C42A", "self-cleavage": 0.05}, {"variant": "A16C U28A G36A", "self-cleavage": 0.02}]}]}
